According to the supplement of paper PMC4967469:

compound: Cc1cc(N2CCOCC2)cc2[nH]c(-c3c(NC[C@@H](O)c4cccc(Cl)c4)cc[nH]c3=O)nc12 [BMS-536924]; assay: Viability of human cancer cell lines after 72 h of drug (GDSC screen); settings: top dose 5.12 µM; screen: GDSC drug entry 62
Description: (§1)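 Human cancer cell lines in 384-well plates, medium with 10% serum, drug for 72 h over a 256-fold dose range (nine 2-fold or five 4-fold steps up to the top dose). Adherent lines were fixed and stained with the nucleic acid dye Syto60, suspension lines read with resazurin; signal relative to control wells, capped at 0 and 100%. One two-parameter sigmoid per drug and line, fitted in a mixed model over all curves with the slope shared within a line.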

Cell Line	AUC	IC50 [µM]
KP-N-YN (neuroblastoma, adherent)	0.909	> 5.12
KURAMOCHI (ovary, adherent)	0.846	4.63
L-428 (Hodgkin lymphoma, suspension)	0.938	> 5.12
LAN-6 (neuroblastoma, adherent)	0.431	0.2
LB373-MEL-D (melanoma, adherent)	0.89	> 5.12
LB771-HNC (head and neck, adherent)	0.46	0.243
LB831-BLC (bladder, adherent)	0.732	1.49
LB2518-MEL (melanoma, adherent)	0.857	4.51
LP-1 (myeloma, suspension)	0.941	> 5.12

compound: Cc1ccc(-n2nc(C(C)(C)C)cc2NC(=O)Nc2ccc(OCCN3CCOCC3)c3ccccc23)cc1 [BIRB 0796]; assay: as above; settings: top dose 10 µM; top dose inferred
Description: as §1

Cell Line	AUC	IC50 [µM]
HSC-39 (stomach, suspension)	0.985	> 10
HUTU-80 (digestive system, adherent)	0.974	> 10
IST-MEL1 (melanoma, adherent)	0.982	> 10
JJN-3 (haematopoietic neoplasm, suspension)	0.992	> 10
K5 (thyroid, adherent)	0.981	> 10
KCL-22 (chronic myeloid leukaemia, suspension)	0.982	> 10
KELLY (neuroblastoma, adherent)	0.98	> 10
KGN (ovary, adherent)	0.977	> 10
KINGS-1 (glioma, adherent)	0.976	> 10
KM12 (large intestine, adherent)	0.978	> 10
KNS-42 (glioma, adherent)	0.983	> 10
KP-N-YN (neuroblastoma, adherent)	0.851	8.82
KURAMOCHI (ovary, adherent)	0.914	> 10
L-428 (Hodgkin lymphoma, suspension)	0.993	> 10
LAN-6 (neuroblastoma, adherent)	0.969	> 10
LB373-MEL-D (melanoma, adherent)	0.969	> 10
LB771-HNC (head and neck, adherent)	0.969	> 10
LB831-BLC (bladder, adherent)	0.922	> 10
LB2518-MEL (melanoma, adherent)	0.987	> 10
LP-1 (myeloma, suspension)	0.993	> 10

compound: Cc1cccc(-c2[nH]c(C(C)(C)C)nc2-c2ccc3nccnc3c2)n1 [SB-525334]; assay: as above; settings: top dose 20 µM; top dose inferred
Description: as §1

Cell Line	AUC	IC50 [µM]
HSC-39 (stomach, suspension)	0.991	> 20
HUTU-80 (digestive system, adherent)	0.867	13.1
IST-MEL1 (melanoma, adherent)	0.837	17.3
JJN-3 (haematopoietic neoplasm, suspension)	0.969	> 20
K5 (thyroid, adherent)	0.978	> 20
KCL-22 (chronic myeloid leukaemia, suspension)	0.976	> 20
KELLY (neuroblastoma, adherent)	0.871	16
KGN (ovary, adherent)	0.698	5.13
KINGS-1 (glioma, adherent)	0.981	> 20
KM12 (large intestine, adherent)	0.936	> 20
KNS-42 (glioma, adherent)	0.971	> 20
KP-N-YN (neuroblastoma, adherent)	0.883	> 20
KURAMOCHI (ovary, adherent)	0.973	> 20
L-428 (Hodgkin lymphoma, suspension)	0.979	> 20
LAN-6 (neuroblastoma, adherent)	0.874	> 20
LB373-MEL-D (melanoma, adherent)	0.971	> 20
LB771-HNC (head and neck, adherent)	0.957	> 20
LB831-BLC (bladder, adherent)	0.965	> 20
LB2518-MEL (melanoma, adherent)	0.92	> 20
LP-1 (myeloma, suspension)	0.974	> 20

compound: NC(=O)c1ccc(N(C(N)=O)c2c(F)cccc2F)nc1-c1ccc(F)cc1F [VX-702]; assay: as above; settings: top dose 2 µM; top dose inferred
Description: as §1

Cell Line	AUC	IC50 [µM]
HSC-39 (stomach, suspension)	0.962	> 2
HUTU-80 (digestive system, adherent)	0.991	> 2
IST-MEL1 (melanoma, adherent)	0.974	> 2
JJN-3 (haematopoietic neoplasm, suspension)	0.961	> 2
K5 (thyroid, adherent)	0.986	> 2
KCL-22 (chronic myeloid leukaemia, suspension)	0.991	> 2
KELLY (neuroblastoma, adherent)	0.989	> 2
KGN (ovary, adherent)	0.981	> 2
KINGS-1 (glioma, adherent)	0.981	> 2
KM12 (large intestine, adherent)	0.986	> 2
KNS-42 (glioma, adherent)	0.971	> 2
KP-N-YN (neuroblastoma, adherent)	0.987	> 2
KURAMOCHI (ovary, adherent)	0.984	> 2
L-428 (Hodgkin lymphoma, suspension)	0.988	> 2
LAN-6 (neuroblastoma, adherent)	0.985	> 2
LB373-MEL-D (melanoma, adherent)	0.99	> 2
LB771-HNC (head and neck, adherent)	0.982	> 2
LB831-BLC (bladder, adherent)	0.982	> 2
LB2518-MEL (melanoma, adherent)	0.965	> 2
LP-1 (myeloma, suspension)	0.993	> 2

compound: O=C(c1cc(Cc2n[nH]c(=O)c3ccccc23)ccc1F)N1CCN(C(=O)C2CC2)CC1 [Olaparib]; assay: as above; settings: top dose 5 µM; screen: GDSC drug entry 1017; top dose inferred
Description: as §1

Cell Line	AUC	IC50 [µM]
HSC-39 (stomach, suspension)	0.965	> 5
HUTU-80 (digestive system, adherent)	0.93	> 5
IST-MEL1 (melanoma, adherent)	0.961	> 5
JJN-3 (haematopoietic neoplasm, suspension)	0.993	> 5
K5 (thyroid, adherent)	0.956	> 5
KCL-22 (chronic myeloid leukaemia, suspension)	0.988	> 5
KELLY (neuroblastoma, adherent)	0.951	> 5
KGN (ovary, adherent)	0.981	> 5
KINGS-1 (glioma, adherent)	0.981	> 5
KM12 (large intestine, adherent)	0.985	> 5
KNS-42 (glioma, adherent)	0.984	> 5
KP-N-YN (neuroblastoma, adherent)	0.985	> 5
KURAMOCHI (ovary, adherent)	0.984	> 5
L-428 (Hodgkin lymphoma, suspension)	0.989	> 5
LAN-6 (neuroblastoma, adherent)	0.985	> 5
LB373-MEL-D (melanoma, adherent)	0.982	> 5
LB771-HNC (head and neck, adherent)	0.976	> 5
LB831-BLC (bladder, adherent)	0.987	> 5
LB2518-MEL (melanoma, adherent)	0.983	> 5
LP-1 (myeloma, suspension)	0.989	> 5

same assay, conditions: top dose 10 µM; screen: GDSC drug entry 1495

Cell Line	AUC	IC50 [µM]
HSC-39 (stomach, suspension)	0.988	> 10
HUTU-80 (digestive system, adherent)	0.896	8.54
IST-MEL1 (melanoma, adherent)	0.892	> 10
JJN-3 (haematopoietic neoplasm, suspension)	0.992	> 10
K5 (thyroid, adherent)	0.881	9.72
KCL-22 (chronic myeloid leukaemia, suspension)	0.988	> 10
KELLY (neuroblastoma, adherent)	0.917	> 10
KGN (ovary, adherent)	0.916	> 10
KINGS-1 (glioma, adherent)	0.966	> 10
KM12 (large intestine, adherent)	0.983	> 10
KNS-42 (glioma, adherent)	0.956	> 10
KP-N-YN (neuroblastoma, adherent)	0.985	> 10
KURAMOCHI (ovary, adherent)	0.946	> 10
L-428 (Hodgkin lymphoma, suspension)	0.992	> 10
LAN-6 (neuroblastoma, adherent)	0.957	> 10
LB373-MEL-D (melanoma, adherent)	0.983	> 10
LB771-HNC (head and neck, adherent)	0.949	> 10
LB831-BLC (bladder, adherent)	0.953	> 10
LB2518-MEL (melanoma, adherent)	0.972	> 10
LP-1 (myeloma, suspension)	0.992	> 10

compound: O=C1NC(=O)c2c1c(-c1ccccc1Cl)cc1[nH]c3ccc(O)cc3c21 [Wee1 inhibitor 681640]; assay: as above; settings: top dose 2 µM; top dose inferred
Description: as §1

Cell Line	AUC	IC50 [µM]
HSC-39 (stomach, suspension)	0.886	1.67
HUTU-80 (digestive system, adherent)	0.991	> 2
IST-MEL1 (melanoma, adherent)	0.876	> 2
JJN-3 (haematopoietic neoplasm, suspension)	0.992	> 2
K5 (thyroid, adherent)	0.918	> 2
KCL-22 (chronic myeloid leukaemia, suspension)	0.991	> 2
KELLY (neuroblastoma, adherent)	0.756	0.627
KGN (ovary, adherent)	0.848	2
KINGS-1 (glioma, adherent)	0.953	> 2
KM12 (large intestine, adherent)	0.896	> 2
KNS-42 (glioma, adherent)	0.969	> 2
KP-N-YN (neuroblastoma, adherent)	0.955	> 2
KURAMOCHI (ovary, adherent)	0.982	> 2
L-428 (Hodgkin lymphoma, suspension)	0.987	> 2
LAN-6 (neuroblastoma, adherent)	0.968	> 2
LB373-MEL-D (melanoma, adherent)	0.99	> 2
LB771-HNC (head and neck, adherent)	0.925	> 2
LB831-BLC (bladder, adherent)	0.957	> 2
LB2518-MEL (melanoma, adherent)	0.941	> 2
LP-1 (myeloma, suspension)	0.989	> 2

Lines with a small IC50 respond at low doses; a fit beyond the top or the lowest dose is shown as a bound at that dose. For AUC the same curve is integrated over the 256-fold range of doses and scaled to a fraction; it is 1 without any effect and falls as sensitivity rises. For part of these data: An inferred top dose is not printed in the source and was worked back from the curve model. For part of these data: Where an entry number is given, a second screen of the drug exists; the two often differ.
